{"source": "paper PMC12136788", "binders": {"B1": {"name": "chr15:41480918:41481019:+|3pUTR|ENSG00000137815|msi1|total|mutant (ssRNA)", "RNA": "GGGAGUUCUACAGUCCGACGAUCCCUCCCCCAGGGCCCCACCCAGUGUGGGCCUGGGCUCUCUUGGGCUUUAUCCAUGUCUUCCGAUUUGUGUUUGCCUUUUGUUUUUUUAACCGCGCAGUUCAUUGGCCACUCUGCACGCAUCAACAGAGGAUUGAGCAUCA"}, "B2": {"name": "chr7:40094668:40094770:+|CDS|ENSG00000065883|unk|FALSE|unique (ssRNA)", "RNA": "GGGAGUUCUACAGUCCGACGAUCGGAUAUGGAGACAUUUACCUCAAUGCUGGUCCCAUGUUGUUUAGUGGAGACAAGGACCAUAGAUUUGAAUAUAGCCAUGGUCCUAUUGCAGUCCUGGCAAACAGCAGUGACCCUUCCACGCAACAGAGGAUUGAGCAUCA"}, "B3": {"name": "chr8:23842440:23842541:-|3pUTR|ENSG00000159167|msi1|total|mutant (ssRNA)", "RNA": "GGGAGUUCUACAGUCCGACGAUCCCAAUGCGACAAGCCGUUCAUGAGUAUUCCCCGCAAAUUUCUCUCUUUCUUCAGUUCAGCCGAUUUCCUUUUUUCUUUUCUUUUUUUUUUUUUUUUUUUUUGGCUGUGACCUCUUCAAACCAACAGAGGAUUGAGCAUCA"}, "B4": {"name": "ENSG00000107863:be:win_1051|CDS|ENSG00000107863|bound_else_gene|NA|bound_elsewhere_windowed (ssRNA)", "RNA": "GGGAGUUCUACAGUCCGACGAUCUACAGUGGACAUUCUGAUGGAAUCUCAAGCAGCAGAUCUCAAGCUGUGGAGGCUCCCUCUGUAUCUGUUAAUCACUAUUCGCCAAAUUCCCAUCAGCACAUAGACUGGAAAAACUAUAAACAACAGAGGAUUGAGCAUCA"}, "B5": {"name": "chr14:106116634:106116941:-|CDS|ENSG00000211941|control|control|control (ssRNA)", "RNA": "GGGAGUUCUACAGUCCGACGAUCUGGAUCCGCCAGGCUCCAGGGAAGGGGCUGGAGUGGGUUUCAUACAUUAGUAGUAGUAGUAGUUACACAAACUACGCAGACUCUGUGAAGGGCCGAUUCACCAUCUCCAGAGACAACGCCCAACAGAGGAUUGAGCAUCA"}, "B6": {"name": "chr2:73226876:73226918:+|3pUTR|ENSG00000135632|msi1_unk|total|mutant (ssRNA)", "RNA": "GGGAGUUCUACAGUCCGACGAUCAUCUUCCGGGUCUCCACAGACUAACAUUGAAGUCUUCCAGAAACCUCGAGGAGCUGGGCCCGAUACUUCGAGAGCCGCCCUGUCUUGUCCCCUCCUACCCCCAGAUCCGCACCACCCCUCCAACAGAGGAUUGAGCAUCA"}, "B7": {"name": "ENSG00000104142:stop:overlap|stop_codon|ENSG00000104142|stop_codon|NA|stop_codon (ssRNA)", "RNA": "GGGAGUUCUACAGUCCGACGAUCCUAUCGACCGGCCGUUCAUCGACCCCCAGCGCUACGAGGAGGAGCAGCUCAGUUGGCUGUAGGAGGGUGUCACCUUUGAUGGGGGGUGGGCAAUGGGGAGCAGUGGCUUGAACCCACUUGCAACAGAGGAUUGAGCAUCA"}, "B8": {"name": "chr7:6690371:6690472:-|3pUTR|ENSG00000164631|msi1|FALSE|bound_elsewhere (ssRNA)", "RNA": "GGGAGUUCUACAGUCCGACGAUCUGAAAAAAAAAAAAGAAAUAGAAGAUUCCUGCUGUGAAUAAACAUACUUCUUGUGUAAAUAGAAACUGUAAAGUCAUCAGGAUAGCUAGUUAAGUCGGUAACCUUAAACUCAUGUAAGCACAACAGAGGAUUGAGCAUCA"}, "B9": {"name": "chr9:132670296:132670397:+|5pUTR|ENSG00000125484|msi1|total|mutant (ssRNA)", "RNA": "GGGAGUUCUACAGUCCGACGAUCCCUCCCCUUUACCGCCCCGUGCGUUUCCUCAGCACUUCCGGAACUAAAGCCUGUCUGGGCCGCUCCCUAACAGGCUCUGGAGCUCAAUCCCUGGGCAGGGAAAAGGGGGUCCUCGGGGCUCAACAGAGGAUUGAGCAUCA"}, "B10": {"name": "chr5:144162273:144162391:-|CDS|ENSG00000145817|unk|FALSE|unique (ssRNA)", "RNA": "GGGAGUUCUACAGUCCGACGAUCCCCAUAGGCUGGCAAAAUCCAGUUUGGCUAUGUAUACGGGAUCAGUGCAAUUGGAUGUCUAGGAAUGUUUUGUUUAUUAAACUUAAUGAGUAUGACAGGUGUUUCAUUUGGUUGUGUGGCCAACAGAGGAUUGAGCAUCA"}, "B11": {"name": "chr2:32414998:32415099:+|CDS|ENSG00000115760|unk|total|mutant (ssRNA)", "RNA": "GGGAGUUCUACAGUCCGACGAUCCCAUGUUUAUCCGCUGGAGGUUUAUUAACAUAUAAAUCUCCUGCUACCUCACCCAUCCGCCGUAAUUCUCACAGGUCACUGGAUGGUUUAAGCAGAACUCAGGGUGAAAGUAUAUCAGAACAACAGAGGAUUGAGCAUCA"}, "B12": {"name": "ENSG00000070961:be:win_351|CDS|ENSG00000070961|bound_else_gene|NA|bound_elsewhere_windowed (ssRNA)", "RNA": "GGGAGUUCUACAGUCCGACGAUCAGCCAUAGUAUCAUUGGGCCUUUCUUUUUAUCAGCCUCCAGAAGGGGAUAAUGCACUUUGUGGAGAAGUUUCUGUUGGGGAGGAAGAAGGUGAAGGUGAAACUGGUUGGAUUGAAGGAGCCAACAGAGGAUUGAGCAUCA"}, "B13": {"name": "chr1:225494445:225494546:-|3pUTR|ENSG00000154380|msi1|total|mutant (ssRNA)", "RNA": "GGGAGUUCUACAGUCCGACGAUCUUGGGUGUUCCCUCUUCUUAUUUUCUCUCUGCCCACCUUGACACAGUAACUUCCUCUUACCGUCAAGAUGAUGAUUAAGUGUUUAAUUUUUAUUCCAUUUUGUUCUGCAACACGUUCAGGCAACAGAGGAUUGAGCAUCA"}, "B14": {"name": "ENSG00000070961:be:win_801|CDS|ENSG00000070961|bound_else_gene|NA|bound_elsewhere_windowed (ssRNA)", "RNA": "GGGAGUUCUACAGUCCGACGAUCGGAAGGCUCUGGAAGAAUGGUAGUUACAGCUGUAGGUGUAAAUUCUCAAACUGGAAUUAUCUUUACCUUACUUGGAGCUGGAGGUGAAGAGGAAGAGAAGAAAGAUGAGAAGAAAAAGGACAACAGAGGAUUGAGCAUCA"}, "B15": {"name": "chr16:67395001:67395280:-|CDS|ENSG00000159714|control|control|control (ssRNA)", "RNA": "GGGAGUUCUACAGUCCGACGAUCCCGGAUCCGACCCCAGGUAGGAGGGACUGUGCUGGGCCUCCGGUCCAGGUGGAGUGGGAUAGAAAGAAGCCUCUACCCUGGCGCUCGCCUCUGCUUCUUUUGGCGAUGUGGGGCCCUCAGCAACAGAGGAUUGAGCAUCA"}, "B16": {"name": "ENSG00000198589:be:win_5251|CDS|ENSG00000198589|bound_else_gene|NA|bound_elsewhere_windowed (ssRNA)", "RNA": "GGGAGUUCUACAGUCCGACGAUCGUGGUUUCCUCAGUAGAUUCAGCCCAAGCCUCAGAUAUGGGAGGAGAAUCACCAGGCAGUAGAUCAUCUAAUGCAAAAUUGCCCUCAGUUCCAACAGUUGAUUCAGUUUCACAAGAUCCGCAACAGAGGAUUGAGCAUCA"}, "B17": {"name": "chr13:113097702:113097803:+|3pUTR|ENSG00000126217|unk|total|mutant (ssRNA)", "RNA": "GGGAGUUCUACAGUCCGACGAUCAAAGAAAAUACAAAGAUGCAGUUUCUGCAGGGUGUGGCGUGGACCAGUGCUGCCGACCACCGCUCAGAGAGCCCUGCCCCUGCCUCACUGCACUGCAGCCUCCUCGGAGGCCGCACCUCCCAACAGAGGAUUGAGCAUCA"}, "B18": {"name": "chr2:182777146:182777247:+|3pUTR|ENSG00000077232|msi1|FALSE|unique (ssRNA)", "RNA": "GGGAGUUCUACAGUCCGACGAUCUGAAGAUGAAGAAAAAGUUUAAAAGAAAUUCUGACAGAUGACAUCAGAAGACACCUAUUUAGAAUGUUACAUUUAUGAUGGGAAUGAAUGAACAUUAUCUUAGACUUGCAGUUGUACUGCCAACAGAGGAUUGAGCAUCA"}, "B19": {"name": "chrX:15345595:15346132:-|three_prime_utr|ENSG00000165197|control|control|control (ssRNA)", "RNA": "GGGAGUUCUACAGUCCGACGAUCCAGACCAACCUUCCAUUCACACCAGCUAAGGAGUCCCUGGUUCAUUGAUGGAUGUCUUCUAGCUGCAGAUGCCUCUGCGCACCAAGGAAUGGAGAGGAGGGGACCCAUGUAAUCCUUUUGCAACAGAGGAUUGAGCAUCA"}, "B20": {"name": "chr10:95606323:95606429:-|3pUTR|ENSG00000059573|unk|FALSE|bound_elsewhere (ssRNA)", "RNA": "GGGAGUUCUACAGUCCGACGAUCCCAUGGCUGCUUUGUGUCACCUCAGUGACUUACAGUCCCCCUUGGCAUUUAGUUGGUACUAGAGCCAGUCAUCCUUAACAAAUCUUUUCACAUUUUAUUUCUUUCACAUGUAGUCAUCUUCAACAGAGGAUUGAGCAUCA"}, "B21": {"name": "chr12:76027553:76027654:-|3pUTR|ENSG00000139289|msi1|total|mutant (ssRNA)", "RNA": "GGGAGUUCUACAGUCCGACGAUCCUCCUGAGCCGCUGGGACUACAGGUGAAUGCCACCACGCCCGGCUGAUUUUUGUAUUUUCCGCCGAGAUGGGGUUUCACCACCGUGGUCAGGCUGUUCUCGAACUCCUGACCUCAGGUGACAACAGAGGAUUGAGCAUCA"}, "B22": {"name": "chr8:42175503:42175666:-|3pUTR|ENSG00000104368|msi1|FALSE|unique (ssRNA)", "RNA": "GGGAGUUCUACAGUCCGACGAUCAUGAAAGCAUGUCUCAAUAGUAAAAGAUAACAAGAUCUUUCAGGAAAGACGGAUUGCAUUAGAAAUAGACAGUAUAUUUAUAGUCACAAGAGCCCAGCAGGGCCUCAAAGUUGGGGCAGGCAACAGAGGAUUGAGCAUCA"}}, "note": "Some of the results follow.", "data": [{"target": "MSI1 full-length (mouse, UniProt Q61474 1-362)", "sequence (Q61474 whole entry)": "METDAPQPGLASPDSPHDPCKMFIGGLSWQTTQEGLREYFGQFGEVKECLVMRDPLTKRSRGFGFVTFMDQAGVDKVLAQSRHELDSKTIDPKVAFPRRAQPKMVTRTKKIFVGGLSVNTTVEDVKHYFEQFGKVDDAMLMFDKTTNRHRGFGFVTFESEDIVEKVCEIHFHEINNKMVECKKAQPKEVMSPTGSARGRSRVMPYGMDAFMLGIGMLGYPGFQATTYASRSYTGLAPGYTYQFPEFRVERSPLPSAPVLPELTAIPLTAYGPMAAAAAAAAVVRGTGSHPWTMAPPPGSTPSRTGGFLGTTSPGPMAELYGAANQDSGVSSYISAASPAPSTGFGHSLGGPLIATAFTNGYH", "test": "nsRBNS (natural sequence RNA bind-n-seq); RBNS binding buffer (assumed for nsRBNS): 25 mM Tris pH 7.5, 150 mM KCl, 3 mM MgCl2, 0.01% Triton X-100, 500 ug/ml BSA, 20 U/ml SUPERase-In, 4 C; UNK is unkempt and MSI1 is Musashi-1; names of the RNAs are library labels; protein concentration not given here; high values mean tight binding", "units": {"binding signal": "enrichment R"}, "values": [{"binder": "B1", "binding signal": 0.476}, {"binder": "B2", "binding signal": 0.583}, {"binder": "B3", "binding signal": 2.13}, {"binder": "B4", "binding signal": 1.83}, {"binder": "B5", "binding signal": 3.09}, {"binder": "B6", "binding signal": 0.711}, {"binder": "B7", "binding signal": 0.321}, {"binder": "B8", "binding signal": 3.7}, {"binder": "B9", "binding signal": 0.383}, {"binder": "B10", "binding signal": 0.343}, {"binder": "B11", "binding signal": 0.411}, {"binder": "B12", "binding signal": 0.421}, {"binder": "B13", "binding signal": 0.712}, {"binder": "B14", "binding signal": 0.737}, {"binder": "B15", "binding signal": 0.505}, {"binder": "B16", "binding signal": 0.752}, {"binder": "B17", "binding signal": 0.48}, {"binder": "B18", "binding signal": 1.03}, {"binder": "B19", "binding signal": 0.394}, {"binder": "B20", "binding signal": 6.89}, {"binder": "B21", "binding signal": 0.37}, {"binder": "B22", "binding signal": 41.9}]}]}
